According to the supplement of paper PMC3334620:
Over roughly 33,000 sequences, “E-score (-0.5 to 0.5)” has its median near -0.012; the highest 2% begin near 0.29. The list shows a part of the results.

These sequences were tested against T1, Ybr033w (UniProt P38073) (assay: PBM E-score (8-mer binding enrichment) (E-score (-0.5 to 0.5)); higher = stronger / more preferred TF binding; most listed sequences are background and not binding sites). Conditions: protein concentration: 200 nM; construct: GST-full length.
T1 sequence: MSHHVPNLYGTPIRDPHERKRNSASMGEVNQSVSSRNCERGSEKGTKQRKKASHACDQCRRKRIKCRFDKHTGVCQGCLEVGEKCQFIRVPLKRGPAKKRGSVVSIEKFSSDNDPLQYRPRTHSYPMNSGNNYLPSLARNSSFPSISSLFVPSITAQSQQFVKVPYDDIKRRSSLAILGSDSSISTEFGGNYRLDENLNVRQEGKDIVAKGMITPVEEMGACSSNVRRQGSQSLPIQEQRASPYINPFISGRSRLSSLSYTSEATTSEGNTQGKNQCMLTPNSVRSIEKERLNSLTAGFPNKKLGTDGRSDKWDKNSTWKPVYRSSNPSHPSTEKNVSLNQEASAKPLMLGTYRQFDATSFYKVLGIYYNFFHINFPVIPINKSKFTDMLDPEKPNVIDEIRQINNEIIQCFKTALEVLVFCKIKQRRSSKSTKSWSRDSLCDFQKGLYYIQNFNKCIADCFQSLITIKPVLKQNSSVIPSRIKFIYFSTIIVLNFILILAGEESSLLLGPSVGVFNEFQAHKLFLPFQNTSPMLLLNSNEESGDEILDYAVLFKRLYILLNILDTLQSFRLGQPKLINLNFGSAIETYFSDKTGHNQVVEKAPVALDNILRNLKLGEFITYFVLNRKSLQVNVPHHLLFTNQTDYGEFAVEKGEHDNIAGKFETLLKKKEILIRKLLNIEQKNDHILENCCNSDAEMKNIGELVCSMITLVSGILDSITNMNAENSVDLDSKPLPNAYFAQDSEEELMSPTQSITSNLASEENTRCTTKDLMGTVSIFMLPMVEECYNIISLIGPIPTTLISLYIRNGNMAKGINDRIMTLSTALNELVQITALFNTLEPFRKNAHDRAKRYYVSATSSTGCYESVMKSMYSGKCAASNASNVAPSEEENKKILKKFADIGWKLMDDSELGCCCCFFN
Outline: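 Universal all-10-mer Agilent arrays, fresh or stripped once, were converted to double-stranded form by primer extension. GST-tagged yeast transcription factors from PURExpress in vitro transcription/translation, full-length or DNA-binding domain only, were applied at about 100-200 nM and detected with fluorescent anti-GST. After masliner normalisation, the Universal PBM Analysis Suite scored each ungapped eight-base word together with its reverse complement by E-score.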

Row | Sequence | PBM E-score
1 | AGCGCGTC | -0.242
2 | ACACTAAA | 0.266
3 | GCAGCACC | -0.145
4 | CAACAAGC | 0.129
5 | ACCGAAAA | 0.234
6 | ATATAGGC | 0.173
7 | GGGTGCTA | -0.128
8 | GGGGCTAA | -0.171
9 | AACCTTAA | 0.217
10 | GCAATTGC | -0.0889
11 | AAAGTCTC | -0.149
12 | TGATTTAA | 0.201
13 | CCACGTGA | -0.00623
14 | ACAGCGAG | -0.0732
15 | CCTATTTC | 0.124
16 | CGTACTCC | -0.0493
17 | CCTGTATA | -0.00245
18 | ACATTAAA | 0.225
19 | ATTTGGAG | -0.0991
20 | GAGACGTA | 0.0844
21 | ACCCTATC | -0.133
22 | TCTGAGCA | 0.0208
23 | AAGCTTAG | 0.192
24 | CGACAGGA | 0.0781
25 | AGTCATAT | 0.219

Row | Sequence | PBM E-score
26 | ACCGATCG | -0.0706
27 | GTCAGCCA | -0.14
28 | AGTGCTAA | -0.0458
29 | TACCTCCA | -0.107
30 | ACACTACC | -0.00067
31 | GCGCGGTA | -0.00808
32 | AGGGATTG | 0.0227
33 | ACCTACGT | -0.114
34 | CAACCCTG | -0.0479
35 | CTACGAAG | -0.118
36 | GGGACTTA | -0.128
37 | CATGCACA | 0.139
38 | GCGCATGA | -0.276
39 | ATCGCACA | 0.0294
40 | AACGTGGG | -0.125
41 | CAATGTTC | 0.205
42 | ATGCTCTG | -0.111
43 | AGCATCCG | -0.127
44 | CCTCTCGA | -0.208
45 | ACGGCGCC | -0.241
46 | GGATTGTA | 0.0654
47 | CATCTGGA | -0.00738
48 | CCTTCGAG | -0.224
49 | GATTTTTA | 0.209
50 | CCGGCGTA | -0.21

Row | Sequence | PBM E-score
51 | GATAGCCC | -0.197
52 | AACGTGCA | -0.15
53 | AGCACTAG | 0.0133
54 | CTGATATA | 0.118
55 | GCAGATAC | -0.0897
56 | GTTCATCA | 0.0699
57 | ACGACTCT | -0.113
58 | CGATCACC | -0.0507
59 | CTGCGAAA | -0.119
60 | CTGTAGTA | 0.282
61 | AGCTGACT | -0.0611
62 | CCGGGTAA | 0.0724
63 | GACTACCA | -0.0785
64 | CGAGCCCC | -0.38
65 | GAGGCTGC | -0.245
66 | CCAATAGA | -0.00615
67 | AACCGTGC | -0.129
68 | ACATTCTA | -0.0592
69 | CGATACCA | 0.14
70 | GGGTATAA | -0.135
71 | CGGTAGCC | -0.105
72 | CTGACTAA | 0.00352
73 | GAAGAATC | 0.202
74 | CTGTATCA | -0.15
75 | AGTGGGAA | 0.00886

Row | Sequence | PBM E-score
76 | ATTGTTGG | 0.151
77 | CAGTTCGA | -0.0318
78 | CACTCTGA | -0.295
79 | CACATTAG | -0.0472
80 | ATTGCTAA | 0.234
81 | CGGAACTA | 0.191
82 | GGATATCC | 0.177
83 | AGACGACT | -0.0906
84 | GAATATCC | 0.227
85 | AGGGAGGA | -0.326
86 | ACTGTGGA | 0.0104
87 | GATCCGCC | 0.0423
88 | GTCGAGCA | -0.309
89 | CGCCTGAC | -0.169
90 | ATTCCCTG | 0.0828
91 | AGCAGTAG | -0.159
92 | CCGCCTAG | -0.0786
93 | AATGGTCC | 0.223
94 | GTAGCTAC | 0.0147
95 | AGACCAGA | 0.118
96 | AAGCGCAA | 0.172
97 | GAACTGCC | -0.136
98 | ATGGAGTC | 0.127
99 | GACCGATA | 0.111
100 | ATCTGCGA | -0.152

Row | Sequence | PBM E-score
101 | CCCGATCG | -0.189
102 | ACGCAACT | 0.075
103 | CTTGGATC | 0.0879
104 | CGGTGGAA | 0.0562
105 | AGGGAAAG | -0.0954
106 | AACTTAAG | 0.0775
107 | CAAGTCAG | -0.068
108 | GAAGATAA | 0.319
109 | AGACACCG | -0.00977
110 | TCATCAGA | -0.0315
111 | ACCCATGC | -0.104
112 | GGTGGTAC | -0.231
113 | AACCAACG | -0.0876
114 | TATTTCGA | 0.357
115 | CCTCCCTA | -0.225
116 | CTCAGCTC | -0.0962
117 | GATGGAGA | -0.0673
118 | ATGACAGC | 0.0533
119 | GAGGAAGC | -0.209
120 | CTCGATCC | -0.127
121 | CTTTAAGC | 0.0527
122 | ACGGGGCC | -0.335
123 | CTCTACCC | -0.12
124 | GGGAACAC | 0.0998
125 | AAGATCTC | 0.0171

Row | Sequence | PBM E-score
126 | CGACCAAC | -0.0674
127 | AATACTAG | 0.191
128 | AAGTCACT | 0.018
129 | CACACGTC | -0.0938
130 | CAGATGTC | 0.0259
131 | ACTCCCGG | -0.0371
132 | AACGGAGC | -0.286
133 | CCCCGTAC | -0.341
134 | GGCTGCCA | -0.122
135 | CGCGATCC | -0.148
136 | GAGATCCA | -0.0406
137 | GACAATGC | -0.0133
138 | TAGTTATA | 0.215
139 | ACACGAAA | 0.233
140 | ACGGTGCG | -0.129
141 | GTCAATTA | 0.0415
142 | AGAGATTC | 0.112
143 | GGCAACAA | 0.0925
144 | AGATCTGG | -0.109
145 | AATTCCGA | 0.296
146 | GTCACTGA | -0.193
147 | CATCTTCG | 0.0785
148 | ACATGCCT | -0.0518
149 | ATTTCACA | 0.151
150 | TATTGTCA | 0.193

Row | Sequence | PBM E-score
151 | ATTCTGAG | 0.0635
152 | ACCGCCGA | 0.00768
153 | CTTACAAA | 0.107
154 | GTGCGAAA | 0.0668
155 | GTGGAAAA | 0.298
156 | AGACCACG | -0.163
157 | AAACAAGA | 0.197
158 | AGGACTTC | -0.0252
159 | GGTGAGTA | -0.00821
160 | AGCAGCGC | -0.0908
161 | CAAAACCC | 0.0145
162 | AGTAGCAA | 0.152
163 | CACTCATC | 0.0289
164 | CCAGCGTC | -0.332
165 | AGACCCAA | -0.132
166 | CGCGCCAC | 0.011
167 | ACACACTC | 0.171
168 | AACGCCTA | -0.00852
169 | CATGAATA | -0.00235
170 | AAGTGTGG | 0.0881
171 | CATCGACA | -0.105
172 | ATCACACA | 0.215
